In paper PMC4336329 (PLoS ONE, 2015):
The campaign covered roughly 310,000 compounds. About 14,000 (4.5%) showed an effect of 50% or more. The effect is printed as a negative number. Some of the results follow.

These molecules were tested against human ether-à-go-go-related gene (hERG) potassium channel (human, UniProt Q12809) (assay: primary screen, population patch clamp on CHO cells stably expressing hERG).
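Note: peak tail current of the secondary pulse compared with the same well before compound.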

Chain of human ether-à-go-go-related gene (hERG) potassium channel (Q12809 whole entry, looked up): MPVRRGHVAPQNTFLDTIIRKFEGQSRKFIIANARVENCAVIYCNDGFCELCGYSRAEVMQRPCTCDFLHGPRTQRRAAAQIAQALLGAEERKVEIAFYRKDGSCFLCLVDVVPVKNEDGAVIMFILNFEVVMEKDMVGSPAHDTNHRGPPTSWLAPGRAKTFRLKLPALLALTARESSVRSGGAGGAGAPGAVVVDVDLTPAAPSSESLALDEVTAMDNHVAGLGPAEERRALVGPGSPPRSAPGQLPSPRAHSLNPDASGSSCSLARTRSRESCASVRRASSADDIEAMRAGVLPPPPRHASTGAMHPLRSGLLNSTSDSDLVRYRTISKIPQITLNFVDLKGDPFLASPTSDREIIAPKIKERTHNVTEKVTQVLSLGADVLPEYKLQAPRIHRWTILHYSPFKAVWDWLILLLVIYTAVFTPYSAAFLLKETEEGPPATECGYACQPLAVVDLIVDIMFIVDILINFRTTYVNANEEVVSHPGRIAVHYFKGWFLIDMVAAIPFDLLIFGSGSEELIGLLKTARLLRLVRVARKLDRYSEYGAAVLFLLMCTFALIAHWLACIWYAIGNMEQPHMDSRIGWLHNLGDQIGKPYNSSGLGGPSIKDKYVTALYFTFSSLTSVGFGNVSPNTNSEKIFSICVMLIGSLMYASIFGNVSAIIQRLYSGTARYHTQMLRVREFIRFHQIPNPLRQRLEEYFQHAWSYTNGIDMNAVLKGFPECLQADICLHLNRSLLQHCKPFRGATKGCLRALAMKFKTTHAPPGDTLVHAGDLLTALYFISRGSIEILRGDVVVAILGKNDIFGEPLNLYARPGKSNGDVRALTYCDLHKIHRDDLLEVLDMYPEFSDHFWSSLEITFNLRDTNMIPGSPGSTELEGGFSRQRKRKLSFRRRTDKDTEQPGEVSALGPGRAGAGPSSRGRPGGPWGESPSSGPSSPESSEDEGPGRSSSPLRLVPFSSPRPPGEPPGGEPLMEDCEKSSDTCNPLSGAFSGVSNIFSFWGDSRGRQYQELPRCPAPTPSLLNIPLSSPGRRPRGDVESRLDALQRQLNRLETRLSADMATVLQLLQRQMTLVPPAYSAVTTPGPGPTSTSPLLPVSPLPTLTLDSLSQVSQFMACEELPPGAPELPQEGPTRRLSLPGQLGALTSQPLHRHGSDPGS

Row | SMILES | hERG current change (%, negative = inhibition) at 10uM
1 | CCN(C(=O)c1sc(N)c(C#N)c1C)C1CCCCC1 | 9.21%
2 | Cc1cc(OCC(=O)N(Cc2ccco2)c2c(N)n(Cc3ccccc3)c(=O)[nH]c2=O)ccc1Cl | 10.8%
3 | CC(=O)Nc1ccc(NC(=O)c2cccc(S(=O)(=O)N(C)C3CCCCC3)c2)cc1 | 6.97%
4 | COc1ccc([N+](=O)[O-])cc1N(CC(O)CN(C)C)S(=O)(=O)c1ccc(C)cc1 (stereo not shown) | -41.8%
5 | O=C(c1ccc(COc2ccccc2Br)cc1)N1CCCCC1 | -8.54%
6 | O=C(O)C(F)(F)F.O=C1C(Cc2ccccc2)Nc2ncnc(N3CCCCC3)c2N1Cc1ccc(Cl)cc1 (stereo not shown) | -8.17%
7 | COc1ccc(N(CC(=O)Nc2ccccc2C(=O)N2CCCC2)S(C)(=O)=O)cc1 | 27.7%
8 | COc1cc(N)c(Br)cc1C(=O)O | 11.8%
9 | CC(=O)Nc1ccc(S(=O)(=O)NCC2CCC(C(=O)N3CC(C)CC(C)C3)CC2)cc1 (stereo not shown) | 5.39%
10 | O=c1c2ccccc2nc(/C=C/c2ccco2)n1-c1ccccc1O | -13.3%
11 | Cc1ccc(NC(=S)N(Cc2ccccc2)Cc2cccs2)c(C)c1 | 10.3%
12 | CN1CCN(C(=O)/C(=C\c2cccs2)NC(=O)c2ccccc2)CC1 | -75.3%
13 | NC(=O)NOCc1c(F)cccc1Cl | 19.3%
14 | Cn1c(CNC(=O)CNC(=O)Cc2ccc(F)cc2)cc(=O)n(C)c1=O | 21.8%
15 | CCCCOc1ccc(C(=O)NCC(=O)NCCOc2ccc(C)cc2)cc1 | 6.35%
16 | Cc1cc(C)n(CC(=O)c2ccc(Cl)cc2)n1 | 17.2%
17 | COc1ccc(C(=O)Nc2ccccc2C(=O)NC(Cc2ccc(O)cc2)C(=O)NNC(=O)c2ccncc2)cc1 (stereo not shown) | 7.99%
18 | CCc1nc(SCc2ccc(Br)cc2)n[nH]1 | 10.2%
19 | Cc1ccsc1C(=O)Nc1ccc(C(=O)O)cc1 | 0.621%
20 | O=C(COc1coc(CN2CCc3ccccc3C2)cc1=O)Nc1cccc([N+](=O)[O-])c1 | 2.89%
21 | CC[C@H]1OC(=O)[C@H](C)[C@@H](O[C@H]2C[C@@](C)(OC)[C@@H](O)[C@H](C)O2)[C@H](C)[C@@H](O[C@@H]2O[C@H](C)C[C@H](N(C)C)[C@H]2O)[C@](C)(O)C[C@@H](C)CN(C)[C@H](C)[C@@H](O)[C@]1(C)O | 1.55%
22 | Cc1nc2ccccc2c(=O)n1NC(=O)c1ccc(Cl)c([N+](=O)[O-])c1 | -6.86%

Row | SMILES | hERG current change (%, negative = inhibition) at 10uM
23 | CC(=O)OC(C(=O)NC1CCCCC1)c1ccc(Cl)cc1 (stereo not shown) | 19.4%
24 | O=C(CCc1nc2ccccc2c(=O)[nH]1)Nc1cc(C(F)(F)F)ccc1N1CCOCC1 | -35.3%
25 | COc1ccc(C2C(C(=O)NCC3CCCO3)CCC(=O)N2c2ccc3c(c2)OCO3)cc1 (stereo not shown) | -3.58%
26 | Nc1ccc(Cc2nc3c(ccc4ccccc43)[nH]2)cc1 | -7.64%
27 | CCOC(=O)CNC(=O)N1CCc2ccc(NC(=O)c3ccccc3Cl)cc2C1 | -0.885%
28 | CCCn1c(SCC(N)=O)nnc1C(C)C | 14.7%
29 | CCOC(=O)C1CCN(Cc2ccccc2C)CC1 | 0.665%
30 | O=C(COC(=O)c1cccc(Br)c1)NCCc1ccc(F)cc1 | -0.0664%
31 | Cl.OC(COCCC12CC3CC(CC(C3)C1)C2)CN1CCCCC1 (stereo not shown) | -40.1%
32 | Brc1ccc(-c2csc(/N=C/N3CCCC3)n2)cc1 | -17.4%
33 | C/C(CCc1ccc2c(c1)OCO2)=N\NC(=O)c1ccccc1Br | -41.4%
34 | COc1cc([N+](=O)[O-])ccc1NC(=O)Oc1ccc(NC(C)=O)cc1 | 2.32%
35 | COCCn1c(SCC(=O)Nc2ccccc2OC)nc2c([nH]c3ccccc32)c1=O | -6.52%
36 | CCOC(=O)CCCNC(=O)CCNC(=O)c1ccc(OCCC(C)C)cc1 | 5.87%
37 | Nc1nc(Oc2ccc(F)cc2)c(Br)c(=O)[nH]1 | 7.49%
38 | CC(=O)[C@@H]1[C@@H](C(=O)c2ccccc2)[C@]2(C(=O)Nc3ccccc32)[C@H]2C=Cc3cc(F)ccc3N12 | 3.37%
39 | O=C(CNC(=O)c1ccccc1Br)N/N=C/c1cccnc1 | 13.4%
40 | CCOC(=O)c1c(C)[nH]c(C)c1C(=O)COC(=O)/C=C/c1cccc(Cl)c1 | 6.76%
41 | Cc1cc(NC(=O)c2cc(-c3ccccc3)on2)n(-c2ccccc2)n1 | 3.96%
42 | COc1cnc(-c2ccccn2)nc1Oc1cccc(Cl)c1 | -3.55%
43 | O=C(CN1C(=O)COc2ccccc21)N1CCN(C2CCCCC2)CC1 | 1.4%
44 | O=C(Nc1cc(C(F)(F)F)ccc1N1CCOCC1)c1ccc[n+]([O-])c1 | 5.15%

Row | SMILES | hERG current change (%, negative = inhibition) at 10uM
45 | COc1ccc(Cc2n[nH]c(=S)n2-c2ccc3c(c2)OCCO3)cc1 | 32.6%
46 | Cc1ccc2[nH]c(C)c(CCNC(=O)NC3CCCCC3)c2c1 | 7.63%
47 | CCSc1nnc(NC(NC(=O)c2ccco2)(C(F)(F)F)C(F)(F)F)s1 | -2.49%
48 | CCN(C(=O)COC(=O)CCc1c[nH]c2ccccc12)c1c(N)n(Cc2ccccc2)c(=O)[nH]c1=O | 0.628%
49 | O=S(=O)(c1ccc2c(c1)OCCO2)N1CCCN(S(=O)(=O)c2c(F)cccc2F)CC1 | -13.8%
50 | COc1ccc(-n2nnnc2SCC(=O)Nc2ccccc2N2CCOCC2)cc1OC | -46.9%
51 | CC(C)CNC(=O)c1cc([N+](=O)[O-])ccc1N1CCOCC1 | 4.47%
52 | O=C(OCC[NH+]1CCOCC1)c1cccnc1.[Cl-] | 1.91%
53 | O=C(COC(=O)C1=COCCO1)NCc1ccc(F)cc1 | 9.07%
54 | Cc1nn(C)c(C)c1NC(=O)Nc1ccc(Cl)c(Cl)c1 | 8.03%
55 | O=c1[nH]c(-[n+]2ccccc2)c(/C=N/N=C(\[O-])c2ccccc2)s1 | 27.4%
56 | CCSc1nnc2c(n1)[nH]c1c(C)cccc12 | -3.16%
57 | Cc1cccc(NC(=S)N(CCCN2CCOCC2)Cc2ccco2)c1 | -29.9%
58 | CC(C)(C)c1ccc(Cn2c(=O)cnc3ccccc32)cc1 | -4.85%
59 | CC(C)CN1CCN(Cc2ccccc2C(F)(F)F)CC1CCO (stereo not shown) | 4.5%
60 | O=C(Nc1ccc(F)cc1)C(Sc1nc2ccccc2[nH]1)c1ccccc1 (stereo not shown) | 24.2%
61 | CCOc1ccc(N2C(=O)C(CC(=O)Nc3ccccc3)N(Cc3ccccn3)C2=S)cc1 (stereo not shown) | -15.3%
62 | O=C(/C=C/c1cccc([N+](=O)[O-])c1)Nc1cccc(NC(=O)c2cccs2)c1 | -11.7%
63 | Cc1ccc(NCN2C(=O)c3ccccc3C2=O)c(C)c1 | -20.7%
64 | CCOc1ccc(N2C(=O)/C(=C\c3ccc(O)c(OC)c3)S(=O)(=O)C2c2cccc([N+](=O)[O-])c2)cc1 (stereo not shown) | 25.6%
65 | COc1ccc(S(=O)(=O)N2CCCCC2)cc1NC(=O)c1cccs1 | 32.3%
66 | C/C(=N/NS(=O)(=O)c1cc(C)ccc1C)c1ccncc1 | 11%

Row | SMILES | hERG current change (%, negative = inhibition) at 10uM
67 | COc1ccc(-n2nnnc2SCC(=O)Nc2cccc(NC(C)=O)c2)cc1OC | -2.11%
68 | CC(C)(C)c1ccc(-n2ncc3c2CCCC3NC(=O)c2csnn2)cc1 (stereo not shown) | 1.88%
69 | Cc1cccc(N2C(=O)CC(Sc3nc(C)c4c(n3)CCCC4)C2=O)c1 (stereo not shown) | -1.59%
70 | O=c1oc2ccccc2cc1-c1ccccc1 | 14.5%
71 | COc1cc(/C=N/N=C2/C(=O)Nc3ccccc32)cc(OC)c1O | -3.68%
72 | Cc1ccc(NC(=O)NCc2ccncc2)cc1Cl | -2.27%
73 | COc1ccc2ccccc2c1/C=N/NC(=O)c1cccc(C)c1 | -12.9%
74 | CCOc1ccc(C(=O)n2cc(C(=O)OC)c3ccccc32)cc1OCC | 3.18%
75 | CCOc1ccc(-c2cc(C(=O)N3CCCC3)c3ccccc3n2)cc1 | 7.81%
76 | O=C(Cc1ccccc1[N+](=O)[O-])OCN1C(=O)c2ccccc2C1=O | 9.99%
77 | O=C(Nc1ccncc1)c1ccc(Cl)c(S(=O)(=O)N2CCCCC2)c1 | -31.3%
78 | O=C(NC1CC(=O)c2sccc21)c1ccc(Cl)cc1Cl (stereo not shown) | -35.6%
79 | CCc1ccc(NC(=O)Cn2nnc(C(=O)NCc3ccco3)c2N)cc1 | 9.83%
80 | CC1CCC(C(C)C)C(OC(=O)CSc2nc(N)cc(=O)[nH]2)C1 (stereo not shown) | 12.7%
81 | O=C(c1cccc(Oc2ccccc2)c1)N1CCN(c2ccccn2)CC1 | -39.7%
82 | CCCCn1nc(C(=O)Nc2ccccc2N2CCCC2)c2ccccc2c1=O | -9.4%
83 | CCCC1(CCC)C(=O)NC(=NCc2ccccc2)NC1=O | 12.7%
84 | O=C(O)CC1Sc2nnc(COc3ccc(Cl)cc3)n2N=C1c1ccccc1 (stereo not shown) | 21.2%
85 | CCCc1cc(=O)[nH]c(SCC(=O)Nc2ccc(C)cc2)n1 | 25.5%
